# This is one part of the list.
# System: T1, C. trachomatis L2/434/Bu expressing GFP (CTL2-GFP)
# T1 construct: L2/434/Bu GFP intracellular growth in HeLa cells
# Set-up: species or system HeLa; C. trachomatis total inclusion area by high-content imaging, normalised to DMSO
# Conditions: total inclusion area; 28.5 h, 10 µM; inhibitor
# Procedure, shortened: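 Bulk GFP and resorufin signals were read first. Wells were then fixed, stained with Hoechst and imaged to detect GFP inclusions and host nuclei. MICs followed the previously described calculation.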
row,Structure (SMILES),% of control remaining
1,CCC1CCCCN1S(=O)(=O)c1ccc(NC(=O)Cn2c(=O)oc3ccccc32)cc1 (stereo not shown) [CBK268069],102.564
2,CC(=O)Nc1cccc(Oc2cnc(-c3ccc(OC(F)(F)F)cc3)c(N)n2)c1 [CBK145119],103.705
3,COc1ccc(-c2[nH]c3ncccc3c2CN2CCCC2)cc1 [CBK285331],48.6247
4,CC1CCc2c(sc3ncnc(NCCCN4CCCCCC4=O)c23)C1 (stereo not shown) [CBK305947],35.5288
5,CCCc1cc(O)nc(SCCCCn2ccnc2C)n1 [CBK306359],62.5795
6,Cn1nc(CN(Cc2ccccc2C(F)(F)F)C2CC2)[nH]c1=O [CBK306391],30.8881
7,CC(=O)Nc1ccccc1OCc1cc(-c2ccccc2)on1 [CBK296617],75.8078
8,COc1cc(/C=N/NC(=O)CCn2c3ccccc3c3ccccc32)ccc1O [CBK262332],44.9953
9,O=C(NCc1cccnc1)c1csc2c1CCCC2 [CBK305029],120.072
10,Cc1nn(-c2ccccc2)c2[nH]c(=O)c(CNC(c3ccccc3)c3ccco3)cc12 (stereo not shown) [CBK286449],93.7819
11,COCc1cc(C)nc2c1C(=O)NC(c1ccccc1C(=O)O)N2Cc1ccccc1 (stereo not shown) [CBK286599],91.3576
12,Cc1ccc(C(=O)N(C)CCN(C)C)c(NCc2cccnc2)n1 [CBK076348],129.182
13,CN1C(=O)COc2ccccc2CCCC[C@@H]2[C@H]1CCCN2C(=O)CCCn1cccn1 [CBK292090],99.5411
14,O=C(O)C1CCN(C(=O)CSc2nc3ccccc3o2)CC1 [CBK286557],91.0945
15,O=C1N[C@]2(Cc3ccccc31)CN(Cc1ccccc1)C[C@H]2CO [CBK284743],95.8441
16,NC(Cc1ccc(Cl)cc1)C(=O)N(CCc1cc(C(F)(F)F)cc(C(F)(F)F)c1)c1cccc2ccccc12 (stereo not shown) [CBK008674T],44.7264
17,O=C1NC2(CCC2)C(=O)N1Cc1nn(-c2ccccc2)c2c1CCC2 [CBK306383],38.8239
18,Cc1csc(C(Cc2ccsc2)NC(=O)C2CC2C)n1 (stereo not shown) [CBK282226],82.5059
19,CC(NC(=O)N1CCSCC1)c1ccc2c(c1)CC(=O)N2 (stereo not shown) [CBK305093],78.977
20,N#Cc1cc2c(=O)n(-c3ccccn3)ccc2[nH]c1=O [CBK288119],99.2482
21,CC1=NN(c2ccc(Cl)c(Cl)c2)C(=O)C1 [CBK067761],94.2841
22,CCN1CCN(C(=O)c2c(-c3ccccc3)noc2C)CC1 [CBK200251],104.112
23,CCC1(CC)OC(N[C@@H](C)c2ccccc2C(F)(F)F)=NC1=O [CBK122691],81.8175
24,CCCNC(=O)c1ccc(C)c(NC(=O)N[C@@H]2C[C@@H](CO)N(C)C2)c1 [CBK307451],102.794
25,O=C(Nc1cccc(N2CCNCC2)c1)c1coc2c1C(=O)CCC2 [CBK034113T],83.5785
26,CCn1c(CC2CCN(C(=O)CCCn3cnnn3)CC2)nn(C)c1=O [CBK306537],69.995
27,CCC1=NC(c2ccccc2Cl)N(O)C1(C)C (stereo not shown) [CBK026466],74.3486

row,Structure (SMILES),% of control remaining
1,c1csc(-c2csc3ncnc(NCCCN4CCOCC4)c23)c1 [CBK267166],105.838
2,Nc1cccc(-c2cc(N3CCCC3CO)n3nccc3n2)c1 (stereo not shown) [CBK037049],109.202
3,O=C(NCc1csc2c1CCCC2)N1CCC(CO)CC1 [CBK307476],61.0379
4,COc1cccc(/C=C/c2nc(C#N)c(NCCCN3CCOCC3)o2)c1 [CBK269506],89.2921
5,COc1ccc(C2(C(=O)N3CCC(c4ccncc4)CC3)CC2)cc1 [CBK285476],70.9567
6,Cc1cc(C)n(C(C)CC(=O)NCc2ccccc2-n2ccnc2)n1 (stereo not shown) [CBK281518],122.651
7,Cc1cc(C)c(C(=O)N2CCN(CCNC(=O)C3CCCC3)CC2)[nH]1 [CBK305315],95.4062
8,CC(=O)Nc1cccc(C(=O)N2CCOC(CCc3ccccc3)C2)c1 (stereo not shown) [CBK304629],51.7367
9,CCC(C)(C)c1ccc(S(=O)(=O)N2CCCN(Cc3cn(C)c4ccccc34)CC2)cc1 [CBK062871],44.8357
10,CN(C)CCNC(=O)c1cc(-c2ccncc2)nc2ccc(Br)cc12 [CBK267728],104.197
11,COC(=O)c1oc(-c2ccc(OC)cc2)c(-c2ccc(OC)cc2)c1C(N)=O [CBK001957],95.0283
12,Cc1ccccc1-n1nnnc1C(c1ccccc1)N(C)Cc1cccc([N+](=O)[O-])c1 (stereo not shown) [CBK262878],59.3062
13,Cc1cccc(NC(=O)C(c2ccccc2)N2CCOCC2)c1 (stereo not shown) [CBK269331],59.5783
14,Cc1ccc(S(=O)(=O)NCCn2cnc([N+](=O)[O-])n2)cc1 [CBK266270],112.852
15,CC(=O)c1c(-c2cccc(C(=O)N(C)C3CCN(C)C3)c2)cnn1C (stereo not shown) [CBK306633],53.9855
16,CC(C)C(=O)N1CCC(n2nc(-c3cccs3)oc2=O)CC1 [CBK282422],102.301
17,COc1cnc(-c2cccc(C(F)(F)F)c2)c(NC(=O)Cc2ccccc2)n1 [CBK145308],82.2546
18,O=C(O)CNCCC(=O)c1ccc([N+](=O)[O-])cc1 [CBK020544],91.5228
19,O=C(O)CCCn1cc(NC(=O)Cc2ccccc2)cn1 [CBK269821],85.0189
20,COc1ccc(-c2nn(C)c(=O)c3ccccc23)cc1CNC(=O)c1cc([N+](=O)[O-])ccc1OC [CBK266229],97.868
21,Cc1nn(C)c(C)c1CCC(=O)N1CCCCC1c1ncc(-c2cccc(F)c2)[nH]1 (stereo not shown) [CBK291150],92.055
22,COc1cccc(/C=C/C2=NN(c3cccc(F)c3)C(c3cccc(OC)c3OC)C2)c1OC (stereo not shown) [CBK260983],86.2486
23,COc1cc2c(cc1OC)C(C)N(S(=O)(=O)c1cn(C)cn1)CC2 (stereo not shown) [CBK057314],99.0739
24,COCCN(Cc1cnn(C)c1)C(=O)c1nc2ccccn2c1F [CBK306892],99.0146
25,CN1C(=O)CC2(C1=O)C(=O)N(Cc1ccc3ccccc3n1)c1ccc(Cl)cc12 (stereo not shown) [CBK075494],95.3541
26,CC(C)c1ccc(NC(=O)CSc2nnc(Cc3cccc4ccccc34)o2)cc1 [CBK267371],99.5993
27,COCc1cc(C[C@@H]2C[C@H](NC(=O)C(C)(C)C)C2(C)C)no1 [CBK289251],103.711

row,Structure (SMILES),% of control remaining
1,O=[N+]([O-])c1ccc(CN2CCC(N3CCN(CCO)CC3)CC2)cc1 [CBK264621G],106.917
2,CC(O)CNc1nccnc1-c1ccc(S(C)(=O)=O)cc1 (stereo not shown) [CBK037669],94.507
3,CN1CC(=O)N(CC(=O)N2CC=C(c3ccccc3)CC2)c2ccccc2C1=O [CBK294433],104.769
4,O=C(O)c1cc(C(=O)O)cc(N2C(=O)C3C4C=CC(C4)C3C2=O)c1 (stereo not shown) [CBK261193],94.0773
5,CCOC(=O)c1c(NS(=O)(=O)Cc2ccccc2[N+](=O)[O-])sc2c1CCCC2 [CBK004651],90.9907
6,COc1cc(CN2CCN(c3ccccn3)CC2)ccc1O [CBK261537],89.3762
7,O=C(Nc1cccnc1)c1cnc(-c2ccc(Cl)cc2)c(-c2cccnc2)c1 [CBK037568],69.1714
8,O=C(C1CCC1)N1CCC(c2nnc(-c3ccsc3)o2)CC1 [CBK283405],101.102
9,CC1(C)C=Cc2cc(/C(N)=N/O)ccc2O1 [CBK006095],57.8478
10,CCc1ccc(Nc2nc(N)nc(CN3CCN(c4ccccn4)CC3)n2)cc1 [CBK270064],108.082
11,CN1CC(c2ccccc2)C2(CCNCC2)C1 (stereo not shown) [CBK282225],88.9601
12,COc1cccc(OC)c1OCCN1CCC(CNC(=O)Nc2cccc(C(F)(F)F)c2)CC1 [CBK051512T],98.5699
13,O=C(c1cccnc1)N1CCN(S(=O)(=O)c2ccccc2[N+](=O)[O-])CC1 [CBK264227],128.819
14,CCCCOc1ccc(-c2nnn(C(C)C(=O)O)n2)cc1 (stereo not shown) [CBK070540],54.6935
15,Cc1ccc(NC(=O)NC(=O)C2CCN(S(C)(=O)=O)CC2)cc1 [CBK034863],95.586
16,COc1ccc(OC)c(NC(=O)c2ccc3nccnc3c2)c1 [CBK268997],84.2495
17,COc1ccc(CNC(=O)C2CCCN(S(=O)(=O)c3cccs3)C2)cc1 (stereo not shown) [CBK304628],37.822
18,COc1nccnc1N1CCN(CCCC#N)CC1 [CBK084225],95.185
19,O=C(NCCc1c[nH]cn1)c1ccccc1-n1cccc1 [CBK161000],92.175
20,Cc1cc(C)nc(N2CCC(C3CC=CCN(CCc4ccccc4)C3=O)CC2)n1 (stereo not shown) [CBK285575],76.3487
21,O=C(O)CCc1ccc(-c2cccs2)n1-c1ccc(Cl)c(Cl)c1 [CBK264797],121.899
22,Cn1nc2c(cc1=O)CN(C(=O)c1ccoc1)CC2 [CBK304330],73.1411
23,Cc1cc(NS(=O)(=O)c2csc3ccccc23)n(C)n1 [CBK067251],105.299
24,Cc1cc(C(=O)Nc2cccc3cc[nH]c23)ccc1Cl [CBK160078],100.661
25,CC1(C)CC(N2CN(C3CC(C)(C)NC(C)(C)C3)CN(C3CC(C)(C)NC(C)(C)C3)C2)CC(C)(C)N1 [CBK261985],99.804
